Laboratory results as given in the supplement of paper PMC10338343.
± gives the standard deviation. The entries are a selection whose mix differs from that of the whole data set.

Tested on: MIWI (PIWIL1) piRISC loaded with L1MC piRNA (30 nt)
Assay: pre-steady-state target cleavage rate (min^-1); MIWI and MILI are mouse PIWI proteins and EfPiwi is from a freshwater sponge; tags in brackets are library labels; higher = faster piRNA-guided slicing of the target
Settings: guide: L1MC piRNA 5'p-UAACUAAAUACUAUGCAAGCUGUAGGUCCU
In short: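 Cleave-'n-Seq: 1 nM active affinity-purified piRISC with one synthetic guide and 0.1 nM transcribed, DNA-blocked target RNA library were mixed, with or without 500 nM GTSF1 partner protein, in HEPES–potassium acetate buffer at 33 °C for 0–8 or 0–960 min. Uncleaved targets were sequenced and normalised to depth and to weakly complementary targets, three trials were pooled, and k3 was capped at 0.0001 min^-1. The pre-steady-state cleavage rate was fitted […].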

[1] = auxiliary factor: 500 nM mouse GTSF1
[2] = auxiliary factor: none (no GTSF1)

Row | Sequence | pre-steady-state target cleavage rate [1] | pre-steady-state target cleavage rate [2]
1 | UCCUGGAUGAGCUUGCAUAGUAUAAUGUUA | 0.282 ± 0.047 | 0.00928 ± 0.0031
2 | AGGACCUACAGACUUGCAUAGUAUUUAGUUA | 1.1 ± 0.079 | 0.0719 ± 0.014
3 | UCCACCUACAGGUUGCAUAGUUUUUAGUUA | 0.305 ± 0.037 | 0.0132 ± 0.0026
4 | UCCACCUACAGCUUGCAUACUAUUUAGUAA | 0.184 ± 0.028 | 0.00957 ± 0.0025
5 | UGGAGCUACAGGUUGCAUAGUAUUUAGUUA | 0.765 ± 0.044 | 0.0388 ± 0.0065
6 | UCGACCUUGAGCUUGCAUAGUAUUUACAAA | 0.309 ± 0.05 | 0.0033 ± 0.0017
7 | UGGACCUUCAGCUUGCAUACUAUUUAGUUA | 0.321 ± 0.019 | 0.035 ± 0.0073
8 | AGGUCCUACAGCUUGCAUAGUUUUUAGUUA | 0.412 ± 0.022 | 0.0402 ± 0.0081
9 | UGGACCUACAGCUUGCAUAGUAUUUAGUGUA | 0.833 ± 0.062 | 0.0707 ± 0.015
10 | UCCUGGUACAGCUUGCAUAGUAUUUCAGUUA | 0.505 ± 0.12 | 0.00567 ± 0.0032
11 | UCCUGGAUCAGCUUGCAUAGUAUUGUAGUUA | 0.585 ± 0.033 | 0.0244 ± 0.0045
12 | UGGACCUUGUGCUUGCAUAGUAUUUAGAAA | 0.0452 ± 0.0082 | 0.00518 ± 0.0023
13 | UCCUGCUACGGCUUGCAUAGUAUUUAGUUA | 0.998 ± 0.057 | 0.0399 ± 0.0072
14 | UCCUCCUUGAGCUUGCAUAGUAUUUAGUUA | 0.691 ± 0.067 | 0.0333 ± 0.0067
15 | UCCUGGAACAGCUUGCAUAGUAUUUAGUAUA | 0.808 ± 0.056 | 0.0146 ± 0.0047
16 | UCCUGCUACAGCUUGUAUAGUAUUUAGUUA | 0.716 ± 0.037 | 0.0279 ± 0.0056
17 | UCCUGGAUCAGCUUGCAUAGUACUUAGUUA | 0.974 ± 0.042 | 0.0407 ± 0.01
18 | UGGACCUUCAGCUUGCAUAGUAUAUAGUUA | 1 ± 0.053 | 0.0376 ± 0.0085
19 | UCCUGCUACAGCUUGCAGAGUAUUUAGUUA | 1.13 ± 0.12 | 0.0228 ± 0.0065
20 | UCCUGGAUGUCGUUGCAUAGUAUUGAGUUA | 0.021 ± 0.0062 | 0.00394 ± 0.0025
21 | UCCUGCUACAGCUUGCAUACUAUUUACUUA | 0.157 ± 0.022 | 0.0211 ± 0.0049

Row | Sequence | pre-steady-state target cleavage rate [1] | pre-steady-state target cleavage rate [2]
22 | UCGACGUACAGCUUGCAUAGUAUUAAGUUA | 0.635 ± 0.039 | 0.0255 ± 0.0049
23 | UCCUGCUACAGGUUGCAUAGUAUUUACUUA | 0.192 ± 0.044 | 0.0127 ± 0.0038
24 | UCCUCCUACAGCUUGCAUAGUAUGUUAGUUA | 0.258 ± 0.027 | 0.0111 ± 0.0027
25 | UCGACCUACACCUUGCAUAGUAAUUAGUUA | 0.734 ± 0.068 | 0.0226 ± 0.004
26 | UCCUGGAUGAGCUUGCAUAGUAUUUAGCUA | 0.0101 ± 0.0052 | 0.00559 ± 0.0027
27 | UCCUCCAUCAGCUUGCAUAGUAUUUAGUAA | 0.372 ± 0.028 | 0.0277 ± 0.0058
28 | UCCUGCUAGAGCUUGCAUAGUAUUUAGAUA | 0.242 ± 0.035 | 0.0124 ± 0.003
29 | UCCUGGUACAGCUUGCAUAGCAUUUAGUUA | 0.331 ± 0.065 | 0.0226 ± 0.0046
30 | UCCUGGAUGACCUUGCAUAGAAUUUAGUUA | 0.0208 ± 0.0075 | 0.00293 ± 0.0023
31 | UCCUCCUAGAGCUUGCAUAGUAUUUAGAUA | 0.253 ± 0.037 | 0.0109 ± 0.0023
32 | UCCUGCUUCAGCUUGCAUAGUUUUUAGUUA | 0.339 ± 0.025 | 0.0338 ± 0.0073
33 | UCCUGCUACAGCUUGAAUAGUAUUUAGUUA | 0.765 ± 0.041 | 0.024 ± 0.0046
34 | UCCUGGAACAGUCUUGCAUAGUAUUUAGUUA | 0.82 ± 0.031 | 0.0422 ± 0.0092
35 | AGGACCUACAGCUUGCAUAGUUAUUUAGUUA | 0.0867 ± 0.014 | 0.00831 ± 0.0033
36 | UCCUGGAUGUGCUUGCAUAGUAUUGAGUUA | 0.189 ± 0.025 | 0.0273 ± 0.0055
37 | UGGACCUACAGCUUGCAUAGAAUUUUGUUA | 0.46 ± 0.075 | 0.0161 ± 0.0058
38 | UGGACCUACAGCUUGCAUAGUAUUAAGAAA | 0.292 ± 0.051 | 0.00292 ± 0.0027
39 | UCGACCAUCAGCUUGCAUAGUAUUUUCAAA | 0.289 ± 0.034 | 0.00356 ± 0.0023
40 | UCCUGGAACAGCUUAGCAUAGUAUUUAGUUA | 0.986 ± 0.049 | 0.0182 ± 0.0038
41 | UCCUGGAACAGCUUGCAUAUUAUUUAGUUA | 0.953 ± 0.056 | 0.0524 ± 0.014
42 | UCGACCUACAGCUUGCUUACUAUUUAGUUA | 0.533 ± 0.021 | 0.0125 ± 0.0031
